Results reported in PubChem BioAssay AID504332 (National Center for Advancing Translational Sciences (NCATS), 2011).
Hit rate of the full screen: of about 350,000 compounds, about 31,000 (8.9%) were called active. This list was built around the results that the source calls inconclusive (neither active nor inactive); the mix of calls is not that of the screen. The call rests on the fitted dose curve; in most records, active means well fitted inhibition curve with a large enough effect; inconclusive means small, poorly fitted or top-dose-only effect; inactive means no such curve, though single readings can be large or run the other way. Potencies beside an inconclusive call are fits to weak or partial responses and may not hold up.

biological target: Histone-lysine N-methyltransferase EHMT2 (Homo sapiens) (UniProt Q96KQ7); experiment: qHTS Assay for Inhibitors of Histone Lysine Methyltransferase G9a; conditions: G9a H3K9 monomethylation, AlphaScreen, 2 h; activity, negative = inhibition: at 59 µM (top of the series) unless noted; further: nearly all actives have a fitted effect of over 75% in size
In short: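 G9a (20 nM) was preincubated 15 min with compound, then reacted 2 h at room temperature with 500 nM biotin-H3K9 peptide and 20 µM SAM. Monomethyl-H3K9 detected by AlphaScreen using anti-H3K9me1 antibody.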
On the % scale 0 is the no-effect control and ±100 the full control effect; potency means the concentration at half of the fitted maximal effect; tags describe the fitted curve by direction and shape.

UniProt Q96KQ7, sequence (Q96KQ7 whole entry, looked up): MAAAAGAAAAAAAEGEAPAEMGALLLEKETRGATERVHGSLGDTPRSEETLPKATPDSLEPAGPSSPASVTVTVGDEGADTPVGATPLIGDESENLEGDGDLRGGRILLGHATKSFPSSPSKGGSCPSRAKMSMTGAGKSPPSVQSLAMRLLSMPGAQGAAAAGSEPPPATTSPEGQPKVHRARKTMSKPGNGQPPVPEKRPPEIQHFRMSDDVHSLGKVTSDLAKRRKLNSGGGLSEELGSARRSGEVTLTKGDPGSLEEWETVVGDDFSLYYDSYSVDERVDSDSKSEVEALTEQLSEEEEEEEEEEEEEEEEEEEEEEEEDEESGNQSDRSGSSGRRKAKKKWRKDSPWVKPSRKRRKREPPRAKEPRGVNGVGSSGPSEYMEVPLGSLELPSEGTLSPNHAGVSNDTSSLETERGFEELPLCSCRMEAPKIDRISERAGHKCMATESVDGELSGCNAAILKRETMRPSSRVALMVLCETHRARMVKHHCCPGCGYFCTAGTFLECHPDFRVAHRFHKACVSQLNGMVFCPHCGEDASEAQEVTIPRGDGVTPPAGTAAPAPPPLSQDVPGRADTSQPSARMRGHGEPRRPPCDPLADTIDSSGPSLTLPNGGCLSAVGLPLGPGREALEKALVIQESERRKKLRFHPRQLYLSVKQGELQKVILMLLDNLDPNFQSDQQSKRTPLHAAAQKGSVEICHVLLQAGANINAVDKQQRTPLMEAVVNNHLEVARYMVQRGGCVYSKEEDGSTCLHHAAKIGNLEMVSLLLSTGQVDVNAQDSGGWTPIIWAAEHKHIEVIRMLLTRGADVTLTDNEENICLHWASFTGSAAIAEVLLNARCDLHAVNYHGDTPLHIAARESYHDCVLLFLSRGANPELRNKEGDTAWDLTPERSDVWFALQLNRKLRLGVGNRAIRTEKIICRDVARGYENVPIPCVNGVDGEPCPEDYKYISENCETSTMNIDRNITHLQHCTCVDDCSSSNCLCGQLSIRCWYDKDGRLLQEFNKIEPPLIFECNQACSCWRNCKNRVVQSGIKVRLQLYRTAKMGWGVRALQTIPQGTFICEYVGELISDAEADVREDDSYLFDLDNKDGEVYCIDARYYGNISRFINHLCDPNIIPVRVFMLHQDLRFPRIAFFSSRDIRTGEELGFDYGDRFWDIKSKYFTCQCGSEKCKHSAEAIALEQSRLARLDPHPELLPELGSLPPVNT

Row | Structure (SMILES) | Potency | activity, negative = inhibition
1 | O=C1c2cccc3c([N+](=O)[O-])ccc(c23)C(=O)N1O | inconclusive: 89.1 µM [inhibitor, single point] | 
2 | COc1ccc(S(=O)(=O)N2CCOCC2)cc1NC(=O)COc1ccccc1 | active: 12.6 µM | 
3 | O=S(=O)(c1ccc(Oc2ccccc2)cc1)N1CCOCC1 | inactive | 
4 | CCc1ccc(N2C(=O)CC(NNc3nc4ccccc4s3)C2=O)cc1 (stereo not drawn) | active: 14.1 µM | 
5 | COc1cccc(-c2cc(=O)c3cc(NC(C)=O)ccc3[nH]2)c1 | inconclusive: 89.1 µM [inhibitor, single point] | 
6 | Cc1ccc(NC(=S)Nc2c(C)n(C)n(-c3ccccc3)c2=O)cc1Cl | inactive | 
7 | COc1ccc(S(=O)(=O)N/N=C(/C)c2ccncc2)cc1 | active: 7.08 µM | 
8 | Cc1cc(F)ccc1S(=O)(=O)Nc1nc2ccccc2nc1Cl | inconclusive: 89.1 µM [inhibitor, single point] | 
9 | CCN(C(=O)CSc1nncn1-c1ccccc1)C1CCS(=O)(=O)C1 (stereo not drawn) | inactive | 
10 | CC(=O)N1CCCc2cc(S(=O)(=O)N3CCC(C(=O)Nc4c(C)cccc4C)CC3)ccc21 | inactive | 
11 | COc1ccc(OC)c(/C(C)=N/Nc2ccc(C(=O)O)cc2)c1 | active: 14.1 µM | 
12 | COc1cccc(-n2c(SCC(=O)NC(C)(C)C)nnc2-c2ccoc2C)c1 | inactive | 
13 | COc1ccccc1CNc1ncnc2onc(-c3ccc(F)cc3)c12 | inactive | 
14 | Cc1cc(C)n2nc(C(=O)Nc3ccc4c(c3)OCO4)cc2n1 | inconclusive: 10 µM [inhibitor, partial curve, poor fit] | 
15 | COc1ccc(C(=O)n2nc(-c3cccnc3)nc2NCc2ccccc2)cc1OC | inactive | 
16 | Cc1ccccc1OCC1CN(CN2CCOCC2)C(=O)O1 (stereo not drawn) | inconclusive: 39.8 µM [inhibitor, partial curve] | 
17 | CC1CCN(C(=O)CSc2nc3c(cnn3-c3ccccc3)c(=O)[nH]2)CC1 | inconclusive: 22.4 µM [inhibitor, single point] | 
18 | CCCC(=O)Nc1cccc(NC(=S)NC(=O)C(C)Oc2ccc(Cl)cc2Cl)c1 (stereo not drawn) | inconclusive: 6.31 µM [inhibitor, single point] | 
19 | COc1ccc(C(C)(C)C)cc1S(=O)(=O)n1ccnc1C | inconclusive: 89.1 µM [inhibitor, single point] | 
20 | COc1ccc2c(CNC3CCCCCC3)c(C(=O)O)n(Cc3ccc(C)cc3)c2c1 | inconclusive: 31.6 µM [inhibitor, partial curve, poor fit] | 
21 | COc1cc(C2C(C#N)=C(N)Oc3c2ccc2ccccc32)ccc1OCC(=O)Nc1ccc(C)cc1 (stereo not drawn) | inconclusive: 2.82 µM [inhibitor, full curve, poor fit] | 
22 | O=C(NCc1cccnc1)/C(=C/c1ccc(-c2ccc(Cl)cc2)o1)S(=O)(=O)c1ccccc1 | inactive | 
23 | O=C1NC2=C(C(=O)c3ccccc32)C(c2ccccc2)N1 (stereo not drawn) | inconclusive: 56.2 µM [inhibitor, partial curve, poor fit] | 
24 | Cc1nnc(N/N=C/c2ccccc2O)n1N | inactive | 

Row | Structure (SMILES) | Potency | activity, negative = inhibition
25 | COc1ccc(-c2cc(OC(=O)c3ccccc3Cl)c3c(C)oc(C)c3c(=O)c2)cc1OC | inconclusive: 5.01 µM [inhibitor, partial curve, poor fit] | 
26 | COc1cccc(/C=N/Nc2ccccc2C(=O)O)c1O | inconclusive: 50.1 µM [inhibitor, partial curve, poor fit] | 
27 | N#CC1(Cc2ccc(Cl)cc2)c2ccccc2C=CN1C(=O)c1ccccc1 (stereo not drawn) | inconclusive: 10 µM [inhibitor, partial curve, poor fit] | 
28 | Cc1ccc(-c2nc(SCC(=O)NCCN3C(=O)CSC3=O)[nH]c2-c2ccc(C)cc2)cc1 | active: 44.7 µM | 
29 | Cc1cc2cc(CNC(=S)NC3CCCCC3)ccc2n1C | inactive | 
30 | COc1ccccc1NC(=O)c1ccccc1S(=O)(=O)c1ccc([N+](=O)[O-])cc1 | inconclusive: 70.8 µM [inhibitor, single point] | 
31 | Nc1c(C(=O)C2CC2)sc2nc(-c3cccs3)cc(C(F)(F)F)c12 | inconclusive: 39.8 µM [inhibitor, single point] | 
32 | CCc1noc(C)c1C(=O)NNC(=O)COc1ccc(Br)cc1 | inactive | 
33 | COc1ccc(N2CCN(C(=O)[C@H](C)NC(=O)c3ccccc3Cl)CC2)cc1 | inconclusive: 79.4 µM [inhibitor, single point] | 
34 | O=C(Nc1cccc(C(=O)OCc2cc(=O)n3c4c(sc3n2)CCCC4)c1)c1ccc(Cl)cc1 |  | inactive: -1.64% [at 12.7 µM]
35 | Cc1ccc(OC(=O)COc2ccccc2C)c(-n2nc3ccccc3n2)c1 | inactive | 
36 | COc1ccc(NC2C[C@H]3CCCC(=O)N4CC[C@@H](C2)[C@@H]34)cc1 (stereo partly drawn) | active: 39.8 µM | 
37 | CN(C)C1=NCCN1CCC1CCCC1 | inactive | 
38 | Cc1ccc(Cn2c(C)c3cnn(CC(=O)O)c(=O)c3c2C)cc1 | inactive | 
39 | FC(F)(F)c1nc2cc3nc4ccccc4[nH]c3cc2n1 | active: 39.8 µM | 
40 | c1ccc(-c2nc(NCc3cccnc3)c3oc4ccccc4c3n2)cc1 | inconclusive: 39.8 µM [inhibitor, single point] | 
41 | Cc1cccc(N2C(=O)C(O)=C(C(=O)c3cccs3)C2c2ccc(F)cc2)n1 (stereo not drawn) | inconclusive: 35.5 µM [inhibitor, full curve] | 
42 | O=C1c2cccc3c(O)ccc(c23)C(=O)N1c1ccc(Cl)cc1 | active: 44.7 µM | 
43 | N#CC1=C(N)C(C#N)(C#N)[C@H](c2c(F)cccc2F)[C@H]2CC3(CC=C12)OCCO3 | active: 50.1 µM | 
44 | CC(=O)Nc1ccc(N2CCC(C)CC2)c([N+](=O)[O-])c1 | inconclusive: 39.8 µM [inhibitor, full curve] | 
45 | CCOc1ccc(CN2CCNC(=O)C2CC(=O)NCCc2ccccn2)cc1 (stereo not drawn) | active: 56.2 µM | 
46 | FC(F)(F)c1nc2ccccc2nc1N/N=C/c1ccc(Cl)cc1 | inactive | 
47 | CCN1CCN(Cc2cc(=O)oc3ccc(Cl)cc23)CC1 | inconclusive: 79.4 µM [inhibitor, partial curve, poor fit] | 
48 | COc1ccc(C)cc1NC(=O)c1sc2nc(-c3ccc(F)cc3)cn2c1C | inactive | 
